From the supplement of paper PMC11417369
Some of the results follow.

The sequences below were run on PF3D7_0420300 AP2 domain 1 (GST-tagged) (assay: gcPBM binding intensity (ln(normalized median fluorescence intensity)); higher = stronger DNA binding).
Method in brief: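 Alexa488 anti-GST antibody, scanned at 488 nm, detected GST-tagged P. falciparum DNA-binding domains that had been expressed in E. coli and incubated for 1 h on an Agilent 4 × 180k array. The array carried primer-extended double-stranded 36-bp intergenic genomic probes and negative controls. Binding intensity is the highest Masliner-normalised natural-log median intensity across replicate spots of either orientation of each probe.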

Sequence | gcPBM binding intensity (ln)
AAAATAAAAATAACAACACACATATACTATAATATT [CACACA_site2769] | 9.96
AAAATGATAATACCAAGTACACATATGAAAAATACA [XGTACX_site6763] | 9.71
TAAAAACATTTAAATTGTACGGAAATAAAAATTTTT [XGTACX_site8225] | 9.09
TAAATCATTTATTAAGTGCAATATTCTTTTTGAGAT | 8.85
TGTTTTCCCTTTAGTGTGCACGTATTTCTATTAACA [GTGCAC_site9847] | 9.71
ATATAAATATTAAATACACACATTTTTGATTAGGTT [CACACA_site7461] | 9.43
TCATATAATCAAATATGTACATATTTTCAATTGAAT [XGTACX_site6831] | 9
ATATAATTTGATGGTTAACACACATATATATTATAT [CACACA_site8775] | 9.46
TTATTTATTTTTTATACACACAATTATCTTTTTAAG [CACACA_site6162] | 9.46
ATATTTATTTAATGAACACACGATATATTATTTTAT [CACACA_site1602] | 9.34
ATATAGAATATATTAACATGCAATAAGTAAAGGGGG [TGCATGCA_site1022] | 9.96
ACAATGAAATATTCATGTACATATAAATAATAGTGT [XGTACX_site3762] | 9.32
CACTTCATAAAAATTGCACACATATAATAATGTACA [CACACA_site8692] | 9.31
TACAAAATACAAAAATGTACATAAAAATTTATAAAA [XGTACX_site6861] | 9.17
TACAGATACGGACACACACACACACCCAGACAAAAA [CACACA_site4432] | 10
ATATTAAAATATAATCGTACAATTAAATTTTTTTTT [XGTACX_site2739] | 8.97
AATAAATAAAAAATTACACACATATTTATAAATATA [CACACA_site7584] | 9.54
AAGATAAACTTTTTTAATTAATTTAATTTTTTTTTT [GTGCAC_negctrl_site386] | 8.98
ATATATATATATATTCCACACACACCCAAAAAAAAA [CACACA_site9215] | 9.84
TAAAATAAGTTAAAAAGTACATAATTATAATAAATA [XGTACX_site8108] | 9.29
CACAAAAATAAATATAAACACACAATAAATAAATAA [CACACA_site8197] | 9.75
TTTGTTTTTATTTACACATGCAAAAAAAAAAAAAAA [TGCATGCA_site655] | 8.66
TTATAATAGTTAATATGTACATATTTAATAAATAAT [XGTACX_site3183] | 9.09

Sequence | gcPBM binding intensity (ln)
TATGTGTATAATAAAAGTACATATATTATTATATAA [XGTACX_site8556] | 9.21
TATTTCGTAATTTAATAATATACAAGAAATATATAT [XGTACX_negctrl_site143] | 8.95
ATTGACGTCATATAAACATGCACATTTTGGATGTTT [TGCATGCA_site985] | 9.19
TAAAATAATAAAACAACACACAAATAGTTAAAATAG [CACACA_site1680] | 9.92
CATATAATAAAAAATGTACACACATAAGAAAATTTA [CACACA_site8943] | 9.68
TAAATATAATAAGAACAAACAAAATAGTACAATATA [TGCATGCA_negctrl_site364] | 9.6
TTTTTTTTAAATTGTGGTACACAAATTCATATATAT [XGTACX_site8944] | 8.98
TGTTAACTTAAAAAAATACCTACGGAAAAATCACAA [TGCATGCA_negctrl_site433] | 9.3
GTCATATTATTATTACGTACTTAAATATATAATATA [XGTACX_site3405] | 9.26
AAAAGAAAAAAAAGTACACACATGTATATTAATCGT [CACACA_site2528] | 9.79
ATTCAAAATTATAGGTGTACGTATTTTTTTTTTTTT [XGTACX_site7177] | 9.29
AGATGATATAATGGCACACAAATATTTTATTATAAA [CACACA_site3553] | 9.38
TAAATTTATAAATCACGTACATATTTATTTATATTT [XGTACX_site4532] | 9.19
ATAATTTCATAATACGTGCACATAATATATAAAAAA | 9.17
TACTATTTAAAATATGAACACACATTATTTGTTTTA [CACACA_site8870] | 9.35
CACAAAAATAAACACACACACATATATATTTATTAT [CACACA_site5923] | 10.2
TAAATTAAAAGACACACACACAAAAAAAAAAAAAAA [CACACA_site7131] | 9.66
GGAAACTAAAGGAATAAAACTATGGAAATTAATTAA [CACACA_negctrl_site1647] | 9.2
TTTTACACTTTTTTTTGTACACACTAAAAAGATTAA [XGTACX_site8407] | 9.21
AAAGGTTCATAAAAATGTACATAATTATTTACATGT [XGTACX_site2722] | 9.12
CAAATCATATATAGCACACAAATTCTTTATTATTAT [CACACA_site2815] | 9.38
CTGATCCACATTTATACACACCTCGGTTTGTAGAGA [CACACA_site4393] | 9.64
AAAATATATAATATTTGTACATATTGATGGCAACAG [XGTACX_site6454] | 9.3

Sequence | gcPBM binding intensity (ln)
ATATGAATATATATATGTACTAATTAGTAGTTTACG [XGTACX_site6273] | 9.4
AATAAAAATATATCCACACACATATATATATATGTA [CACACA_site576] | 9.56
GAAGATATGTAAAATTGTACATATTATTTTATTTTA [XGTACX_site5302] | 9.06
AGAAATTTACAAATACGTACACACATATATATATAT [XGTACX_site3141] | 9.66
TCATAACAACTTTGTGTGCACATAAAACATGTATAT | 9.53
TATAAGACATGATATATACACACCTTGTTTTAATTT [CACACA_site2266] | 9.41
TTTTTTTTTTCATTCACACAAAAAAAAAAAATTTAT [CACACA_site5921] | 8.72
AAGTATGGAAAGGAATATAAATTAATACTTTCATTG [XGTACX_negctrl_site131] | 9.08
CTTATATATTGCCCTTCACACACACCCATATATATA [CACACA_site8795] | 10.1
AAGACAACATAAATATGTACATATATTTATTATTTT [XGTACX_site1792] | 9.21
TACAAAAAGAATGAAAAATATATAATAAAAATAAAA [XGTACX_negctrl_site159] | 9.23
CACATACCTATATACACACACAAAATAATAAAATAA [CACACA_site7150] | 10
ACTAATATTTTATAAAGTACAAATTAATAAAATTCA [XGTACX_site5817] | 9
AGAATGGATTAGCTAGCACACACAAAAAAAAAAAAA [CACACA_site8995] | 9.26
TATATATATATATTGACACACATGTATTTCAATATT [CACACA_site2832] | 9.33
ATATATATATGTAAGAGTACACAAAAATATGTATGT [XGTACX_site4335] | 9.5
TTTTGTAGATATGACTGTACATATTTTATACATAAC [XGTACX_site971] | 9.19
AAAAAATAAATAAATACACACAAATATATATATATA [CACACA_site2543] | 9.6
AAGAAAAAAAAAATTACACACTGCGCAGATACACAA [CACACA_site1289] | 9.69
TGGTAATCCACATACACACACACATACACATATATA [CACACA_site2727] | 10.1
TAATATGTATATAAAAGTACAGACGATTATAATTAT [XGTACX_site173] | 9.57
AAATAAATAAAAAACACACACAAATAAATAAATATA [CACACA_site2249] | 10.1
TATTTTTTCCTTTGTTTTTTAAACTATCTTAACTAA [XGTACX_negctrl_site519] | 9.23

Sequence | gcPBM binding intensity (ln)
ATATAATAAATATATTGTACATATGAATCTACTAAA [XGTACX_site7610] | 9.05
TAAAAAATGATAGAAGTGCATAAAATAATATATATA [GTGCAC_site9904] | 9.43
TTTCTATTTCCTTCACATCTTTTCATCTTTTTTTTT [CACACA_negctrl_site1110] | 9.71
GACTTGAAGAAATAAGTGCAGAGTTTTATTTTAATT [GTGCAC_site9912] | 9.12
AAAAAATTCCTATATACACACACGCACATATTTATA [CACACA_site6192] | 9.82
AAGGAATATATATACATACACACATATATATATATA [CACACA_site1665] | 9.43
AGTGGATGAGGACATACACACACACCGAAGTTGATA [CACACA_site9132] | 9.77
AAAAAAAAAAAAAAAAAAAAAAATATATATATATAT [XGTACX_negctrl_site33] | 9.26
AATAAAAAGGAAAGGTATATGTGTGCCCTTGTGTTA [TGCATGCA_negctrl_site83] | 9.43
AAATTTTCATGTGTTGCATGCTGAACTATTTTATCA [TGCATGCA_site856] | 9.19
TACACCATGATACATACACACAGACATATACTCATT [CACACA_site4708] | 9.77
TCCAAATGTTTGCGTTGTACTCTTTTTTTAAAACTA [XGTACX_site5148] | 9.28
CCTGAAATTTTATTATGTACATATTATAAAATGATT [XGTACX_site1434] | 9.02
TGGCACTAAAAAAATAAACACACAGATTTATATAAT [CACACA_site8386] | 9.47
ATAACCACATAAAATATAATTATATATATATATATA [CACACA_negctrl_site603] | 9.26
ATTCCTCCCATGGAATGTACTCATCAAATAAATAAA [XGTACX_site6543] | 8.94
TTTATTAATAAGAAATGTACACAAAATTATTTCCAA [XGTACX_site5970] | 9.02
ATAGAGTCATTCCTCACACACACGCTATATGAATAG [CACACA_site2047] | 9.86
TAATTAAAATTAAGAAGTACATTTTACTTTTAATGC [XGTACX_site5120] | 9
AAAAAATACTTATAAAGTACTAATATATATAAGCAG [XGTACX_site743] | 9.33
